This list was built around the results that the source calls inconclusive (neither active nor inactive); the mix of calls is not that of the screen. For part of these data: Potencies of inconclusive entries are doubtful fits and often do not repeat. Activity calls are given as the source filed them. Unless noted, calls follow the shape of the dose curve; as a rule, active = well fitted curve in the direction sought with a large enough effect; inconclusive = small, poorly fitted or top-dose-only effect, or another doubt; inactive = no such curve, though single readings can be large; an effect the other way counts as inactive or inconclusive.
How the values were obtained:
[1] = qHTS of pediatric cancer cell lines to identify multiple opportunities for drug repurposing: Primary screen for SK-N-MC cells (AID 1347093); conditions: SK-N-MC viability, CellTiter-Glo luminescence, 48 h; activity change, negative = cytotoxic: at 46 µM (top of the series);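 also: plate controls were DMSO neutral control for no effect and bortezomib for full effect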
In short: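 Metabolically active cells were quantified by ATP-dependent luminescence (CellTiter-Glo, 15 min at room temperature) following 48 h treatment. Cells had been plated at 500-1,000 per well and settled for 5 h beforehand.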

[2] = qHTS of pediatric cancer cell lines to identify multiple opportunities for drug repurposing: Primary screen for NB1643 cells (AID 1347099);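 also: plate controls were DMSO neutral control for no effect and bortezomib positive control for full effect; nearly all actives have a fitted effect of over 50% in size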
In short: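 Following a 5-hour attachment period, cells at 500-1,000/well received compounds and were cultured for 48 hours. CellTiter-Glo was added and luminescence read to estimate viable, metabolically active cells.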

[3] = qHTS of pediatric cancer cell lines to identify multiple opportunities for drug repurposing: Primary screen for LAN-5 cells (AID 1347100);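 also: plate controls were DMSO neutral control for no effect and bortezomib positive control for full effect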
In short: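 Cells (500-1,000/well) in growth media were settled 5 h at 37 degrees C, then given compounds for 48 h. Viability was read as CellTiter-Glo luminescence. Primary runs used MIPE at 11 points (0.78 nM-46 µM) and NPC at 8 points (0.59 nM-46 µM); follow-ups used 11 points.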

[4] = qHTS of pediatric cancer cell lines to identify multiple opportunities for drug repurposing: Primary screen for control Hh wild type fibroblast cells (AID 1347106);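 also: % is scaled to controls: 0 for no effect and ±100 for the full control effect; a drop in luminescence marks cytotoxicity and a rise apparent proliferation; nearly all actives have a fitted effect of over 55% in size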
In short: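 Viability after 48 h compound treatment at 37C, 500-1,000 cells/well, read as ATP luminescence with CellTiter-Glo. Primary screens used 11-point (MIPE, 0.78 nM-46 µM) or 8-point (NPC, 0.59 nM-46 µM) final concentrations; follow-up screens used 11-point dilutions.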

[5] = test system: Zika virus NS2B-NS3 protease; test: Primary screen GU AMC qHTS for Zika virus inhibitors (AID 1347154);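 also: 0% = no-inhibitor control and -100% = no-enzyme control; nearly all actives have a fitted effect of over 70% in size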
In short: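 Unlinked Zika NS2B hydrophilic domain/NS3 protease domain noncovalent complex (25 nM final) in 10 mM Tris-HCl pH 8.0, 0.01% Tween 20, with AMC peptide substrate. Fluorescence (ex 340, em 450 nm) change over 15 min, room temperature; percent inhibition fitted to 4-parameter Hill equation.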

[6] = Counterscreen qHTS for small molecule stabilizers of the endoplasmic reticulum resident proteome: GLuc-NoTag assay (AID 1508627); also: potency is read from the fitted curve at half-maximal effect
In short: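 SH-SY5Y cells stably expressing constitutively secreted GLuc (no SERCaMP tag) were pre-incubated 5 h, treated with compound for 19 h, then 100 nM thapsigargin for 4 h at 37C; medium GLuc read by coelenterazine luminescence.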

[7] = Cell Viability qHTS for small molecule stabilizers of the endoplasmic reticulum resident proteome (AID 1508629); conditions: cell viability counter-screen, 100 nM thapsigargin for final 4 h;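 also: human SH-SY5Y neuroblastoma cells carrying the GLuc-SERCaMP reporter; compound exposure about 46 h in total before the viability read; % is scaled to controls: 0 for no effect and ±100 for the full control effect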
[8] = Primary qHTS for small molecule stabilizers of the endoplasmic reticulum resident proteome: Secreted ER Calcium Modulated Protein (SERCaMP) assay (AID 1508630); conditions: SH-SY5Y GLuc-SERCaMP (Gaussia luciferase released on ER calcium loss) secretion, thapsigargin, luminescence; activity change, negative = inhibition: at 38.4 µM (top of the series) unless noted; also: potency is read from the fitted curve at half-maximal effect
In short: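 GLuc-SERCaMP-expressing SH-SY5Y cells, pretreated 16 h with compound, are challenged with thapsigargin to empty ER calcium stores; after 4 h, coelenterazine is added directly to the medium and luminescence is imaged.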

[9] = biological target: Cytochrome P450 2D6 (Homo sapiens) (UniProt P10635); test: Cytochrome P450 family 2 subfamily D member 6 (CYP2D6) small molecule antagonists: luciferase biochemical (cell-free) qHTS assay (AID 1645840; active = well fitted curve in the direction sought with a large enough effect in the repeat runs; inconclusive = weak or mixed curves; inactive = no such curve, though single readings can be large; an effect the other way counts as inactive or inconclusive; also: % is scaled to controls: 0 for no effect and ±100 for the full control effect; nearly all actives have a fitted effect of over 55% in size)
In short: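 P450-Glo luminescent screen: recombinant CYP2D6 enzyme–proluciferin substrate mix preincubated with compound 10 min at room temperature, then NADPH regeneration added for 1 h at room temperature. Detection reagent added for 20 min; luciferin light read as relative luminescence units.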

CRL-7250 = normal cell line; test: Cytotoxic Profiling of Annotated Libraries Using Quantitative High-Throughput Screening (AID 1296008); conditions: Five cell lines viability, CellTiter-Glo ATP luminescence, 48-72 h; max response: hits give low values; also: nearly all actives have a fitted effect of over 60% in size; also: potency is read from the fitted curve at half-maximal effect; as to max response: % is scaled to controls: 0 for no effect and ±100 for the full control effect
In short: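 Compounds were pin-transferred onto cells and incubated 48 or 72 hr at 37 degree Celsius, 95% humidity. CellTiter-Glo was added, plates sat 10 min at room temperature, then ATP-coupled luminescence was imaged as the viability read-out.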

HeLa = test: Primary qHTS to identify gynecologic anti-cancer compounds using libraries of approved drugs and bioactive compounds (AID 1345084); conditions: Gynecologic cancer cell panel viability, ATPlite luminescence, 48 h; activity change, negative = cytotoxicity: at 57.5 µM (top of the series); also: % is scaled to controls: 0 for no effect and ±100 for the full control effect; nearly all actives have a fitted effect of over 55% in size
In short: (§1)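 Luminescence from the ATPlite ATP-monitoring reagent indicates viable cell number; lower signal means cytotoxicity. Cells received compound 16 h after seeding and were exposed for 48 h across five concentrations.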

[10] = Primary qHTS for inhibitors of nuclear receptor binding SET domain protein 2 (NSD2) in an RCH-ACV wild type WT cells (2C) (AID 1645877); conditions: activity change, negative = cell killing: at 44.9 µM (top of the series) unless noted; also: nearly all actives have a fitted effect of over 70% in size; also: potency is read from the fitted curve at half-maximal effect; as to activity change, negative = cell killing: % is scaled to controls: 0 for no effect and ±100 for the full control effect
[11] = biological target: Phospholipid hydroperoxide glutathione peroxidase GPX4 (Homo sapiens) (UniProt P36969); test: Primary qHTS Assay for Inhibitors of Recombinant Selenoprotein Glutathione Peroxidase 4 (GPX4) (AID 1845192); also: nearly all actives have a fitted effect of over 65% in size
In short: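 GR-coupled readout: 100 nM GR, 1 mM GSH, 0.5 mM NADPH; NADPH fluorescence (ex 340/em 450 nm) read at t=0 and after 15 min RT. GPX4 200 nM, preincubated 30 min with compound; substrate 0.5 mM CHP.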

Es-2 = test: Primary qHTS to identify gynecologic anti-cancer compounds using libraries of approved drugs and bioactive compounds (AID 1345084); conditions: Gynecologic cancer cell panel viability, ATPlite luminescence, 48 h; series mostly up to 57.5 µM; also: % is scaled to controls: 0 for no effect and ±100 for the full control effect; nearly all actives have a fitted effect of over 55% in size
In short: as §1

[12] = P-glycoprotein substrates identified in KB-8-5-11 adenocarcinoma cell line, qHTS therapeutic library screen (AID 1346987); also: potency is read from the fitted curve at half-maximal effect; nearly all actives have a fitted effect of over 65% in size
In short: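 KB-8-5-11, a colchicine-selected P-gp-overexpressing KB-3-1 subline, was grown without colchicine for the assay. Cells were seeded at 500 cells/well, dosed in concentration-response and incubated 72 h at 37 degree C, 5% CO2. Viability was read by CellTiter-Glo luminescence.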

SKOV3 = test: Primary qHTS to identify gynecologic anti-cancer compounds using libraries of approved drugs and bioactive compounds (AID 1345084); conditions: Gynecologic cancer cell panel viability, ATPlite luminescence, 48 h; series mostly up to 57.5 µM
In short: as §1

Tov-21-G = test: as above; conditions: Gynecologic cancer cell panel viability, ATPlite luminescence, 48 h; activity change, negative = cytotoxicity: at 57.5 µM (top of the series) unless noted
In short: as §1
Tags tell the direction and shape of the fitted curve.

UniProt P36969, sequence (P36969 whole entry, looked up): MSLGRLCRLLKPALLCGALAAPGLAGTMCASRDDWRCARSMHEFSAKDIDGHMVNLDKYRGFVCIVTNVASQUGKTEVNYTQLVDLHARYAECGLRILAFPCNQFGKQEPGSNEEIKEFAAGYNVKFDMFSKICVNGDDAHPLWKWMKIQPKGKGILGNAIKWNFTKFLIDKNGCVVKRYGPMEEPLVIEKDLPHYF
UniProt P10635, sequence (P10635 whole entry, looked up): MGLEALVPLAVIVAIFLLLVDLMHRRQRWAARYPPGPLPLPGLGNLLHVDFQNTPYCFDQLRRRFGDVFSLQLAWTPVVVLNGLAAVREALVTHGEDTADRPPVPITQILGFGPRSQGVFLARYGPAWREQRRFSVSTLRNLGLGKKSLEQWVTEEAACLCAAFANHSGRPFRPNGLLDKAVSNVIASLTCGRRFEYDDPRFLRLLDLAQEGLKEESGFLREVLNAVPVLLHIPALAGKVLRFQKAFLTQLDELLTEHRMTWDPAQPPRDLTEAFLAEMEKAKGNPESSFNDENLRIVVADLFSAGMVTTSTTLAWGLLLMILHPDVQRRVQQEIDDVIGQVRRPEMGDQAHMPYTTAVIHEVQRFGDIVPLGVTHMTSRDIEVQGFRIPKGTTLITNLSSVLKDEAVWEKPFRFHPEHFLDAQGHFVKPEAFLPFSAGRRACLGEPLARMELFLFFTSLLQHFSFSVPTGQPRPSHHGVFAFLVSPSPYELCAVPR

CCCC(=O)Nc1ccc(O)c(C(C)=O)c1
inactive: Potency [1] | Potency [2] | Potency [3] | Potency [4] | Potency [5] | max response [7] 11.5% | Potency [9] | max response (CRL-7250) -0.565% | Potency (HeLa)
inconclusive: Potency [6] 17.8 µM [inhibitor, partial curve, poor fit] | Potency [8] 12.6 µM [inhibitor, partial curve, poor fit]

CC(C)=CCC[C@](C)(O[C@@H]1O[C@H](CO)[C@@H](O)[C@H](O)[C@H]1O)[C@H]1CC[C@]2(C)[C@@H]1[C@H](O)CC1[C@@]3(C)CC[C@H](O)C(C)(C)C3[C@@H](O[C@@H]3O[C@H](CO)[C@@H](O)[C@H](O)[C@H]3O)C[C@]12C (stereo partly specified)
inactive: Potency [10] | Potency [11] | max response (CRL-7250) -0.753% | Potency (Es-2)

COc1c2cc(c(O)c1OC)-c1cc(ccc1O)CCC(O)CCCC2 (stereo unspecified)
inactive: Potency (HeLa) | Potency (SKOV3) | Potency (Tov-21-G)
inconclusive: Potency [12] 20.2 µM [inhibitor, partial curve, poor fit] | Potency [10] 12.7 µM [inhibitor, single point] | Potency (CRL-7250) 20.2 µM [inhibitor, single point]
